Results reported in the supplement of paper PMC11417369.
± gives the standard deviation of the averaged measurements. The list shows a part of the results.

test system: PfAP2-I AP2 domain 3 (GST-tagged); test: gcPBM binding intensity (ln(normalized median fluorescence intensity)); higher = stronger DNA binding
Summary of the method: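 Binding intensity values are the highest Masliner-normalised natural-log median intensity among replicate spots of either probe orientation. The binding step lasted 1 h in 1× PBS with 1% milk, 0.2 mg/ml BSA, 0.5% salmon testes DNA and 0.03% Triton X-100, using GST-tagged P. falciparum DNA-binding domains expressed in E. coli on an Agilent 4 × 180k array of primer-extended double-stranded 36-bp intergenic genomic probes plus negative controls. Alexa488 anti-GST antibody and a 488 nm scan detected bound protein.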

| Sequence | gcPBM binding intensity (ln) |
| --- | --- |
| TAAAAATGTGGACACACACACATATATATATTTAAT [CACACA_site4941] | 8.015 ± 0.049 |
| ATATATATTATTATATGTACATATAAATATATTAAT [XGTACX_site5270] | 7.8 ± 0.12 |
| GTATATATGTATGTATGTACGTATATAGTTATGTAT [XGTACX_site6769] | 8.11 ± 0.25 |
| ATAAAAAAATTAAATACATGCACATATACACATACA [TGCATGCA_site129] | 8.17 ± 0.38 |
| TTTATTTTTTCCAAGTCACACATGTTTTGATATATT [CACACA_site4946] | 7.87 ± 0.66 |
| TACTGAAATAATTATTTAAACGTTTTTATATGTATT [CACACA_negctrl_site487] | 7.77 ± 0.34 |
| TTTGTAAAACTATATTGTACTTTTATATATCTACAA [XGTACX_site5507] | 7.62 ± 0.54 |
| ACAACTCGGAAGGTTTGTACTTAAAGTATAATTAAG [XGTACX_site737] | 7.67 ± 0.46 |
| TATATACATGCATATACACACATATATTTATTTATA [CACACA_site6327] | 7.92 ± 0.38 |
| AATTGGAAGAAAAAAAAGGAAGGAAAGTTATTACAT [GTGCAC_negctrl_site74] | 7.47 ± 0.77 |
| TCTTGAATAACAAAAAAATGTGCCAACAAAATAAAT [XGTACX_negctrl_site172] | 8.53 ± 0.53 |
| TCATACATGGTGTGTTTGCACTTGACCTATATTCAT | 8.97 ± 0.46 |
| AAAAAAAATGGATGATCACACACTTCATAAAAATTG [CACACA_site2213] | 7.49 ± 0.68 |
| AATATATTTTTTCACTGTACTTTTATTATATATACA [XGTACX_site8312] | 8.18 ± 0.6 |
| ATAATTTTTTGATTTGCATGTAATAAATATATGATA [TGCATGCA_site384] | 7.66 ± 0.54 |
| GATTTTTTTTTGTGGACACACAGAAATAAATTTATA [CACACA_site327] | 8 ± 0.33 |
| ATACAACGATATATATATATACAAATACATATTTAT [CACACA_negctrl_site268] | 7.73 ± 0.55 |
| CACATACAGATATATACACACAAATATATATACTCA [CACACA_site4591] | 7.72 ± 0.42 |
| AGGATACACAGACACACACACATATATATATATATA [CACACA_site907] | 9.23 ± 0.28 |

| Sequence | gcPBM binding intensity (ln) |
| --- | --- |
| TAAATAGATGTTTTATGTACGTATAAATAAAAAAAA [XGTACX_site3412] | 7.79 ± 0.59 |
| ATTAAAAATATAGTCACACATACACCCATATATATT [CACACA_site5394] | 7.67 ± 0.71 |
| TTTTTTTAAAGACATGCATGTAATATTTAAATCATT [TGCATGCA_site495] | 7.53 ± 0.64 |
| TAATAAAGGTGTAATACACACTATAAAAAGGAATAT [CACACA_site4756] | 8.26 ± 0.83 |
| AAAAAACAAAAAATTACACACATATATAAATATATT [CACACA_site2317] | 7.27 ± 0.48 |
| ATGTGTATATATTATTGTACATATATATATATATAT [XGTACX_site4627] | 9.16 ± 0.19 |
| ACATATATATAAATATATATATATATATATATATAT [CACACA_negctrl_site874] | 9.09 ± 0.5 |
| ATGGTAAGTATTTTATGTACATATATATTTATATAA [XGTACX_site4003] | 7.86 ± 0.34 |
| AAAAAAAAAAAAAAAAGTACTAATTGAATATTAAAC [XGTACX_site3383] | 8.49 ± 0.33 |
| TACACCCATAGACACACACACACGCATAAAAAAAAA [CACACA_site8428] | 8.36 ± 0.34 |
| TAATTAAATAAAAAAACACACACATATATACATATA [CACACA_site9141] | 7.68 ± 0.41 |
| TCTATTAATTAATATACACACATTAGATATAAATAT [CACACA_site7241] | 7.72 ± 0.33 |
| ACACATATATAAATATGTACATATATATATATACAT [XGTACX_site1595] | 7.78 ± 0.31 |
| AATATTTGTTAAAGAGGTACACCATTTGGTAGGGAA [XGTACX_site2165] | 8.15 ± 0.48 |
| ATAATATGAAAACACACACACACACTAGAAAAAAAA [CACACA_site5153] | 8 ± 0.42 |
| AAAAAAAAAAATATAACACACAACAAAAAAATATAT [CACACA_site1753] | 7.83 ± 0.73 |
| ATTATTTAAATGGATGCACACATGCATTAAATAAAA [CACACA_site5831] | 8.99 ± 0.82 |
| TATTTTAACATTAGGTGTACATACAAAAATAAAAAT [XGTACX_site8577] | 8.26 ± 0.43 |
| TTTTTCAAATTTAATACACACACAAGTATATATTTA [CACACA_site9307] | 7.77 ± 0.44 |

| Sequence | gcPBM binding intensity (ln) |
| --- | --- |
| TTTTTCTTTTTACATACACACAAAAAAATAAAATAT [CACACA_site581] | 7.88 ± 0.47 |
| TGGTAATTTCTTTGATAAAAATTAATATGTATAAAT [XGTACX_negctrl_site152] | 7.62 ± 0.69 |
| AAATTAATATTATGTGCATGCACAAAGAGGAACGAC [TGCATGCA_site754] | 10.5 ± 0.35 |
| TATATATAAAGGTGTACACATATATATATATCTGTA [CACACA_site5311] | 7.89 ± 0.27 |
| ATTTCATATTATGTAACACACAACAAGATAATCAAA [CACACA_site1960] | 7.79 ± 0.38 |
| TTTTTTAACCTTTTATGTACACAATATTTAACATTT [XGTACX_site1170] | 8.19 ± 0.61 |
| ACTTACACAGTTGATGGTACACTTTTATGATTTTGT [XGTACX_site3205] | 8.07 ± 0.73 |
| ACAAGTTAAAATATTACACACATATAAATATATATA [CACACA_site3132] | 8.08 ± 0.67 |
| TTTTATTTACACAGTGGTACTATTAAAAATTAATGA [XGTACX_site6737] | 7.91 ± 0.51 |
| ATAAGGTTACAACAAACACACAAAGGAATATACTCA [CACACA_site6108] | 7.8 ± 0.82 |
| CAATTACAAAAGAAATGTACTCGTAATAAATAAATA [XGTACX_site1126] | 7.83 ± 0.6 |
| TGAAATTTTTATACATGTACAAAATTAAATATAACA [XGTACX_site7324] | 7.88 ± 0.5 |
| TATAATAATAATAATAGTACGTATTATTAAAAAACT [XGTACX_site10] | 7.79 ± 0.42 |
| ATATTACACATATATGCACACATTGTAGTTATTTAT [CACACA_site8843] | 9.34 ± 0.26 |
| TAATAAGTAAAAAAATGTACCCGTTAGGTTTAATAA [XGTACX_site638] | 7.59 ± 0.41 |
| AAAATAATATTTAATACACACACCAGTTCTGCAAAT [CACACA_site3736] | 7.93 ± 0.61 |
| ACAAAAAGGTAATTTACACACTGCATATAGGAATAA [CACACA_site2929] | 8.24 ± 0.71 |
| TTTTTCTCTCTCTTATTATACAACAACAAAAAAAAA [GTGCAC_negctrl_site178] | 7.85 ± 0.34 |
| AGAAATATATATATATATATATGTGACAATATTTGT [TGCATGCA_negctrl_site282] | 8.02 ± 0.61 |
